Results as given in the supplement of paper PMC4967469.
Lines with a small IC50 respond at low doses; a limit (>, <) means that the fit lies beyond the doses tested. AUC, from the same fit, is the share of area under the viability curve across the 256-fold dose range: 1 means no effect, lower means more sensitive. Any top dose called inferred comes from the curve model; the source does not state it.

These cell lines were tested with COc1ncc(-c2ccc3nccc(-c4ccnnc4)c3c2)cc1NS(=O)(=O)c1ccc(F)cc1F [GSK2126458] (assay: Viability of human cancer cell lines after 72 h of drug (GDSC screen)). Conditions: top dose inferred.
Method: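 Human cancer cell lines in 384-well plates, medium with 10% serum, drug for 72 h over a 256-fold dose range (nine 2-fold or five 4-fold steps up to the top dose). Adherent lines were fixed and stained with the nucleic acid dye Syto60, suspension lines read with resazurin; signal relative to control wells, capped at 0 and 100%. One two-parameter sigmoid per drug and line, fitted in a mixed model over all curves with the slope shared within a line.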

| Cell Line | AUC | IC50 |
| --- | --- | --- |
| 8-MG-BA (glioma, adherent, top dose 0.128 µM) | 0.586 | 13.5 nM |
| 22RV1 (prostate, adherent, top dose 0.128 µM) | 0.6 | 16.1 nM |
| 42-MG-BA (glioma, adherent, top dose 0.128 µM) | 0.835 | 92.8 nM |
| 201T (lung adenocarcinoma, adherent, top dose 0.128 µM) | 0.815 | 93.7 nM |
| 451Lu (melanoma, adherent, top dose 0.128 µM) | 0.908 | > 128 nM |
| 639-V (bladder, adherent, top dose 0.128 µM) | 0.982 | > 128 nM |
| 647-V (bladder, adherent, top dose 0.128 µM) | 0.936 | > 128 nM |
| 697 (lymphoblastic leukaemia, suspension, top dose 0.128 µM) | 0.161 | 1.01 nM |
| 769-P (kidney, adherent, top dose 0.128 µM) | 0.748 | 44.5 nM |
| 786-0 (kidney, adherent, top dose 0.128 µM) | 0.759 | 41.4 nM |
| 5637 (bladder, adherent, top dose 0.128 µM) | 0.621 | 16.6 nM |
| 8305C (thyroid, adherent, top dose 0.128 µM) | 0.934 | > 128 nM |
| 8505C (thyroid, adherent, top dose 0.128 µM) | 0.805 | 69.1 nM |
| 23132-87 (stomach, adherent, top dose 0.128 µM) | 0.621 | 17.5 nM |
| A3-KAW (B-cell lymphoma, suspension, top dose 0.128 µM) | 0.626 | 16.5 nM |
| A4-Fuk (B-cell lymphoma, suspension, top dose 0.128 µM) | 0.945 | > 128 nM |
| A101D (melanoma, adherent, top dose 0.128 µM) | 0.981 | > 128 nM |

| Cell Line | AUC | IC50 |
| --- | --- | --- |
| A172 (glioma, adherent, top dose 0.128 µM) | 0.722 | 33.1 nM |
| A204 (rhabdomyosarcoma, adherent, top dose 0.128 µM) | 0.652 | 24 nM |
| A253 (head and neck, adherent, top dose 0.128 µM) | 0.844 | 88.1 nM |
| A375 (melanoma, adherent, top dose 0.128 µM) | 0.983 | > 128 nM |
| A388 (skin, adherent, top dose 0.128 µM) | 0.623 | 18.4 nM |
| A427 (non-small cell lung carcinoma, adherent, top dose 0.128 µM) | 0.965 | > 128 nM |
| A431 (skin, adherent, top dose 0.128 µM) | 0.532 | 9.74 nM |
| A498 (kidney, adherent, top dose 0.128 µM) | 0.925 | > 128 nM |
| A673 (rhabdomyosarcoma, adherent, top dose 0.128 µM) | 0.888 | 119 nM |
| A704 (kidney, adherent, top dose 0.128 µM) | 0.972 | > 128 nM |
| A2058 (melanoma, adherent, top dose 0.128 µM) | 0.83 | 69 nM |
| A2780 (ovary, semi-adherent, top dose 0.128 µM) | 0.27 | 1.72 nM |
| ABC-1 (lung adenocarcinoma, adherent, top dose 0.128 µM) | 0.54 | 10.5 nM |
| ACHN (kidney, adherent, top dose 0.128 µM) | 0.814 | 82.1 nM |
| AGS (stomach, adherent, top dose 0.128 µM) | 0.858 | 87.9 nM |
| ALL-PO (lymphoblastic leukaemia, suspension, top dose 0.128 µM) | 0.326 | 2.53 nM |
| ALL-SIL (T-cell leukaemia, suspension, top dose 1.024 µM) | 0.251 | 14 nM |
